{"source": "PubChem BioAssay (NCI)", "note": "Several values for one entry are separate records, joined by “and”; a condition that tells them apart may be missing. Identical values can stand only once.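 Growth conditions: 96-well plates. Treatment: test compound, 48 hours, 5 concentrations. Analysis: linear interpolation between bracketing concentrations; unreached endpoints set to highest concentration. GI50 = concentration required for 50% inhibition of growth. At the TGI there is no net growth.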", "data": [{"system": "NCI-H322M lung", "test": "DTP human tumour cell line panel, 48 h", "values": [{"smiles": "CC/C=C\\C=C/C(=O)N/C=C/CCC", "TGI": "> 100 µM"}, {"smiles": "C/C(=N\\O)c1cccc(Nc2c3ccccc3nc3occc23)c1", "TGI": "97.9 µM"}, {"smiles": "COC(=O)C1Cc2cc3c(cc2C1)CCC3", "TGI": "> 100 µM"}, {"smiles": "[CH3][Hg]/[N]=C(/N)NC#N", "GI50": "20.7 µM", "TGI": "39.4 µM"}, {"smiles": "CN1CCN(CCC=C2c3ccccc3Sc3ccc(S(=O)(=O)N(C)C)cc32)CC1", "GI50": "10.2 µM and 17.5 µM", "TGI": "53 µM and 63 µM"}, {"smiles": "S=C(S)NCCN1CCNCC1", "TGI": "> 100 µM"}, {"smiles": "COc1cc(C(=O)NN=C2c3ccccc3-c3ccccc32)cc(OC)c1OC", "GI50": "5.15 µM", "TGI": "27.7 µM"}, {"smiles": "N#Cc1cccc(C2C(=O)c3ccc(C(=O)c4ccc5c(c4)C(=O)N(c4ccc(Oc6ccc(N7C(=O)c8ccc(C(=O)c9ccc%10c(c9)C(=O)N(c9cccc(C#N)c9)C%10=O)cc8C7=O)cc6)cc4)C5=O)cc3C2=O)c1", "note": "(stereo not drawn)", "TGI": "> 100 µM"}, {"smiles": "CC(C)[Si](Oc1ccc(CC2N(C(=O)c3ccc([N+](=O)[O-])cc3)C(CCc3ccccc3)CC2(C)C=O)cc1)(C(C)C)C(C)C", "note": "(stereo not drawn)", "TGI": "> 100 µM"}, {"smiles": "O=C1OCC2=C1C(c1cccc(Cl)c1)c1cc3c(cc1N2CCO)CCC3", "note": "(stereo not drawn)", "GI50": "0.194 µM", "TGI": "16.9 µM"}, {"smiles": "O=C(NC(OCc1ccccc1)(C(F)(F)F)C(F)(F)F)OCc1ccccc1", "TGI": "30.9 µM"}, {"smiles": "O=C(/C=C/C=C/c1ccc2c(c1)OCO2)N/N=C\\c1ccc(O)cc1O", "GI50": "1.74 µM", "TGI": "16.8 µM"}, {"smiles": "C/C(CCN(C)C)=N\\OC(=O)c1ccccc1", "TGI": "> 100 µM"}, {"smiles": "Cc1ccccc1-n1c(CCl)nc2ccc(Br)cc2c1=O", "TGI": "32.2 µM"}, {"smiles": "CCCCCCCCCCCCc1ccsc1-c1ccc(-c2ccc(-c3sccc3CCCCCCCCCCCC)s2)s1", "TGI": "> 100 µM"}, {"smiles": "COc1cc(N2CCC(N)CC2)ccc1Nc1ncc(Cl)c(-c2c[nH]c3ccccc23)n1", "GI50": "0.238 µM", "TGI": "4.01 µM"}, {"smiles": "Cc1[nH]nc(C(=O)N/N=C/c2ccccc2Cl)c1N=NN(C)C", "TGI": "> 100 µM"}, {"smiles": "COc1cccc(/C=N/[N-]C(N)=O)c1[O-].[Co+2].[OH3+].c1ccncc1", "TGI": "> 100 µM"}, {"smiles": "CC(=O)Oc1cc(-c2oc3cc(OC(C)=O)c(C4OC(CO)C(O)C(O)C4O)c(OC(C)=O)c3c(=O)c2O)c(OC(C)=O)cc1O", "note": "(stereo not drawn)", "TGI": "> 100 µM"}, {"smiles": "CC(=O)OCC1OC(O[C@H]2C=C[C@@H](C(=O)OCc3ccccc3)n3c(=O)n(-c4ccccc4)c(=O)n32)C(OC(C)=O)C(OC(C)=O)C1OC(C)=O", "note": "(stereo partly drawn)", "TGI": "33.9 µM"}, {"smiles": "C[C@]12CCc3nn(-c4ccccc4)nc3C1CC[C@@H]1C2CC[C@]2(C)C(=O)CCC12", "note": "(stereo partly drawn)", "TGI": "> 100 µM"}, {"smiles": "C[C@@H](c1ccccc1)N1CO[C@@]2(C#Cc3ccc4c(c3)OCO4)CCC[C@@H]12", "TGI": "59 µM"}, {"smiles": "O=C(Nc1ccc(F)cc1)c1cc2c(cc1Cl)Sc1nccn1S2(=O)=O", "TGI": "> 100 µM"}, {"smiles": "O=C(O)c1ccc(Nc2cnc3cc(C(F)(F)F)ccc3n2)cc1", "TGI": "> 100 µM"}, {"smiles": "Cc1ccc(-c2cc(=O)c(=O)[nH][nH]2)cc1", "TGI": "> 100 µM"}, {"smiles": "COc1cc2c(cc1-c1coc3cc(O)ccc3c1=O)OCO2", "TGI": "83.1 µM"}, {"smiles": "N#C/C(=C\\c1ccc[nH]1)C(=O)c1ccccc1", "TGI": "> 100 µM"}, {"smiles": "CC1(C)N([O-])[N+](=O)C1(C)O", "note": "(stereo not drawn)", "TGI": "> 100 µM"}, {"smiles": "N#CCCN(c1ccc(C=O)cc1)S(=O)(=O)c1ccccc1", "TGI": "> 100 µM"}, {"smiles": "Cc1cc(=O)oc2c(C)c3oc(CBr)cc3cc12", "TGI": "71.4 µM"}, {"smiles": "CC1=C(C(=O)Nc2ccc(C)cc2)C(c2cccc([N+](=O)[O-])c2)C(C(=O)Nc2ccc(C)cc2)=C(C)N1", "TGI": "> 100 µM"}, {"smiles": "O=c1c2cc([N+](=O)[O-])ccc2n2n1CCCCC2", "TGI": "> 100 µM"}, {"smiles": "CCc1ccccc1NC(=O)C(=O)C1C(=O)N(c2ccccc2)N=C1N", "note": "(stereo not drawn)", "TGI": "> 100 µM"}, {"smiles": "Cc1cc(-c2cc(OC(=O)c3ccccc3)ccc2Cl)cc2nnc(Nc3ccc(OCCN4CCCC4)cc3)nc12", "GI50": "1.66 µM", "TGI": "3.03 µM"}, {"smiles": "COc1cc(OC)c(/C=N\\Nc2nc3ccccc3c(=O)n2-c2ccccc2)c(OC)c1", "TGI": "49.2 µM"}, {"smiles": "CCOc1cc2c(cc1O)C(=O)C[C@@H]1[C@@H]2CC[C@]2(C)[C@@H](O)CC[C@@H]12", "TGI": "> 100 µM"}, {"smiles": "CC(=O)Nc1ccc(C2=N/C(=C\\c3ccc(Cl)cc3)C(=O)O2)cc1", "TGI": "76.2 µM"}, {"smiles": "O=C(Nc1cccc(-n2cc(-c3ccncc3)c(-c3ccc(Cl)c(O)c3)n2)c1)Nc1ccc(Cl)c(Cl)c1", "GI50": "2.89 µM", "TGI": "> 32.5 µM"}, {"smiles": "Cc1cc(C)nc(NS(=O)(=O)c2ccc(NC(=O)COC(=O)c3cccc4c(=O)c5ccccc5[nH]c34)cc2)n1", "TGI": "71.4 µM"}, {"smiles": "Cc1cnc(-c2ccc(-c3ccc(NC(=O)Nc4c(F)cc(F)cc4F)cc3F)c3c2C(=O)NC3)[nH]1", "GI50": "1.1 µM and 0.956 µM", "TGI": "9.97 µM and 13.1 µM"}, {"smiles": "[O-][N+]1=C2CCC/C(=N/O)C2(O)C2CCCCC21N1CCOCC1", "note": "(stereo not drawn)", "TGI": "> 100 µM"}, {"smiles": "COC(=O)C1=CCC2c3[nH]c4ccccc4c3CCN2C1", "note": "(stereo not drawn)", "TGI": "> 354 µM"}, {"smiles": "C[C@]12CC[C@H]3[C@@H](CC[C@]4(O)C[C@@H](O[C@@H]5O[C@H](CO)[C@@H](O[C@@H]6OC[C@@H](O)[C@H](O)[C@H]6O)[C@H](O)[C@H]5O)CC[C@]34C=O)[C@@]1(O)CC[C@@H]2C1=CC(=O)OC1", "GI50": "1.26 µM", "TGI": "4.26 µM"}, {"smiles": "O=c1n(CC2CS2)c2ccccc2n1CC1CS1", "note": "(stereo not drawn)", "TGI": "> 100 µM"}, {"smiles": "Cn1c(=O)c(Oc2ccc(F)cc2F)cc2cnc(NCC(C)(C)O)nc21", "GI50": "> 25 µM", "TGI": "> 25 µM"}, {"smiles": "COC(=O)c1cccc(NC(=O)c2ccc(NC3=C(Cl)C(=O)N(Cc4ccccc4)C3=O)cc2)c1", "GI50": "18.8 µM", "TGI": "38.5 µM"}]}]}
